# Experimental data from publication PMC4336329 (PLoS ONE, 2015).
# Screen size: about 310,000 compounds; about 14,000 (4.5%) showed an effect of 50% or more. The effect is printed as a negative number. Some of the results follow.
# Target: human ether-à-go-go-related gene (hERG) potassium channel (human, UniProt Q12809)
# Experiment: primary screen, population patch clamp on CHO cells stably expressing hERG
# 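Note: peak tail current of the secondary pulse compared with the same well before compound.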
# Sequence of human ether-à-go-go-related gene (hERG) potassium channel (Q12809 whole entry, looked up): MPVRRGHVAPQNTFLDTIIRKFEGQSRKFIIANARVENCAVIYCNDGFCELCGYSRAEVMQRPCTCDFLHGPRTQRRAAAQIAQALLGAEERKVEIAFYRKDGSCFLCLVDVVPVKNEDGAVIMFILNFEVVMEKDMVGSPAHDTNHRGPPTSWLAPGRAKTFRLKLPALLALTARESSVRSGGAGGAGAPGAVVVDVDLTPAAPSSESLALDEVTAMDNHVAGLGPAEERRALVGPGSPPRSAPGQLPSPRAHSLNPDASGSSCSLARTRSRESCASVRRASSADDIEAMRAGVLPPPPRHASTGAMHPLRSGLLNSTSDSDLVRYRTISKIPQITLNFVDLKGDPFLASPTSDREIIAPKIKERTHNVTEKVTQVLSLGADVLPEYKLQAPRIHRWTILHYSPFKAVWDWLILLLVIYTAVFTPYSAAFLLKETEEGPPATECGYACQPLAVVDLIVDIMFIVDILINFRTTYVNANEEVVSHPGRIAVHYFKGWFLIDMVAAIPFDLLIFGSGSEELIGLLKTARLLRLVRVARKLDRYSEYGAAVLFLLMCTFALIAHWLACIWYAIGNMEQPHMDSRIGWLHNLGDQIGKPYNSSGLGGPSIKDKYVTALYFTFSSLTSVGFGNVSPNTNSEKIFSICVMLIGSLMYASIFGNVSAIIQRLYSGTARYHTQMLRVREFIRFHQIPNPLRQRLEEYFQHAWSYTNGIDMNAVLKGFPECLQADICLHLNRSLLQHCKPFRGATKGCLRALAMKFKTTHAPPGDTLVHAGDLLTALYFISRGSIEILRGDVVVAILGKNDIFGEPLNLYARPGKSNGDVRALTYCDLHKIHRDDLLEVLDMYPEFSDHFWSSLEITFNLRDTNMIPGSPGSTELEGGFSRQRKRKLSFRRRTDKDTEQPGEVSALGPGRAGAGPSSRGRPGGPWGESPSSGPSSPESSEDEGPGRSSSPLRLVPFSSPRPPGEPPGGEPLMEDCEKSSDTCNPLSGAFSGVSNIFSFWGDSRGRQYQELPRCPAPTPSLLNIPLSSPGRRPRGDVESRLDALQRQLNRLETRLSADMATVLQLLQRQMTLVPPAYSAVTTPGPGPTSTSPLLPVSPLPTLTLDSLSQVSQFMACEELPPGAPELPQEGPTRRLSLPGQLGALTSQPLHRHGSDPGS
row,SMILES,"hERG current change (%, negative = inhibition) at 10uM [%]"
1,O=C(CCNS(=O)(=O)c1cccc2nsnc12)NC1CCN(Cc2ccccc2)CC1,-28.4
2,C=CCn1c(C)cc(C(=O)CSc2nc3ccccc3[nH]2)c1C,-19.1
3,COc1ccc(NS(=O)(=O)c2csc(C(=O)N3CCCC3)c2)c(OC)c1,-14.5
4,CC(=O)c1c(C)[nH]c(C(=O)Nc2ccccn2)c1C,3.43
5,Cc1ccc2sc(NC(=O)CSc3nc(C)cc(C)c3C#N)nc2c1,-2.59
6,C=CCn1c(=O)c2c3c(sc2n2c(Nc4ccc(OC)cc4)nnc12)CCCC3,7.17
7,Fc1ccc(C2c3[nH]c4ccccc4c3CCN2Cc2cccn2-c2ncccn2)cc1 (centres unmarked),-52.2
8,CCCCn1nnnc1SCC(=O)Nc1ccc(F)cc1,0.129
9,O=C(/C=C/Nc1ccccc1)c1cnc(-c2ccccc2)s1,12.9
10,Cc1cccc(C2Nc3ccccc3C(=O)N2NC(=O)c2ccc([N+](=O)[O-])cc2)n1 (centres unmarked),-5.91
11,O=C(CCNS(=O)(=O)c1ccccc1)OCC(=O)c1ccc(Cl)cc1,-30
12,CCCCOc1ccc(-c2nc(/C=N/c3nccs3)c(O)o2)cc1,28.8
13,COc1ccc(S(N)(=O)=O)cc1C(=O)NCCCN1CCN(c2ccccc2OC)CC1.CS(=O)(=O)O,2.27
14,Cc1ccccc1OC(C)C(=O)Nc1ccc2c(c1)OCO2 (centres unmarked),-5.65
15,Cc1cc(C)cc(N2C(=O)CC(n3nc(C)cc3C)C2=O)c1 (centres unmarked),8.22
16,Cc1ccc(NC(=O)c2ccc(-n3cncn3)c([N+](=O)[O-])c2)cc1F,-18.1
17,CCN1CCN(S(=O)(=O)c2ccc(Cl)c(C(=O)N(C)Cc3ccc(Cl)cc3Cl)c2)CC1,-9.34
18,NC(=O)N/N=C/c1c(F)c(F)c(F)c(F)c1F,15.6
19,Cc1ccc(O)c(NC(=O)CCC2CCCCC2)c1,5.06
20,Cc1ccc(CC(=O)N2CCN(C(=O)C3CCCO3)CC2)cc1 (centres unmarked),1.64
21,O=S(=O)(c1ccc(Cl)s1)N1CCN(Cc2ccccc2)CC1,-19.5
22,COc1ccccc1Nc1nnc(SCC(=O)NC(=O)Nc2ccc3c(c2)OCCO3)s1,-8.87
23,O=C(CC(NS(=O)(=O)c1ccc(Cl)cc1)c1ccco1)N1CCc2ccccc21 (centres unmarked),-14.8

row,SMILES,"hERG current change (%, negative = inhibition) at 10uM [%]"
1,Cc1ccc(C)c(NC(=O)/C(C#N)=C/c2ccc[nH]2)c1,8.28
2,COC(=O)Cc1c(O)ccn(CCc2c[nH]c3ccccc23)c1=O,19.5
3,COc1cccc(-c2nnc(SCC(=O)N3CC(C)CC(C)C3)o2)c1 (centres unmarked),-39.5
4,Cc1ccc(-n2c(=S)[nH]c3c(oc4ccccc43)c2=O)cc1C,12.8
5,CN(Cc1cccnc1)C(=O)CC1C(=O)NCCN1CC(c1ccccc1)c1ccccc1 (centres unmarked),-25.4
6,CCOC(=O)c1cnc(SC)nc1Oc1cccc(NS(=O)(=O)c2ccccc2)c1,16.1
7,COc1ccc(CCNC(=O)C2CCN(C(=O)c3ccc(Cl)cc3)CC2)cc1OC,2.77
8,Cc1cccc(CSc2nnc(-c3ccco3)o2)c1,-14.7
9,O=C(NCCS(=O)(=O)NCc1ccc(F)cc1)c1ccccc1,-12.2
10,COc1ccc(N(CC(=O)NN=C2CCCC2)S(=O)(=O)c2ccccc2)cc1,-7.55
11,C#CCn1c(=NC(=O)c2ccccc2[N+](=O)[O-])sc2cc(S(C)(=O)=O)ccc21,12.6
12,O=C(CCCc1ccccc1)Nc1ccccc1C(F)(F)F,20.3
13,O=C(NCC1CCCO1)C1CCCN1C(=O)Nc1ccccc1[N+](=O)[O-] (centres unmarked),-11.1
14,Cc1c(C)c2ccc(OC(C)C(=O)NCCCN3CCOCC3)c(C)c2oc1=O (centres unmarked),12.4
15,COC(=O)c1ccc(C)c(NC(=O)CCSc2ccccc2)c1,-5.69
16,COc1ccc(OC(C)c2nnc(N)s2)cc1 (centres unmarked),-71.4
17,CC(C)CCN1CCN(Cc2cccc3cccnc23)CC1CCO (centres unmarked),-26.2
18,N#Cc1cccc(-c2cn(S(=O)(=O)c3ccc(Cl)cc3)nc2N)c1,3.89
19,C=C(CC1([C@@H](NP(=O)(c2ccccc2)c2ccccc2)[C@H]2C[C@@H]2CCCC)CC1)c1ccccc1,7.72
20,Cn1c(=O)n(CC(=O)NCC2CCCO2)c(=O)c2c3c(sc21)CCCC3 (centres unmarked),15.9
21,COc1ccc(C2=CC(=O)CCC2)cc1,2.67
22,CCOC(=O)C(C(=O)OCC)C1OC(=O)c2cc3c(cc21)C(=O)OC3C(C(=O)OCC)C(=O)OCC (centres unmarked),12.6
23,CCNc1c(NC(=O)c2cccs2)c(=O)oc2ccccc12,5.32

row,SMILES,"hERG current change (%, negative = inhibition) at 10uM [%]"
1,COc1ccc(-c2noc(CNS(=O)(=O)c3ccc(NC(C)=O)cc3)n2)cc1OC,10.8
2,COC(=O)CCCNC(=O)c1ccc(S(=O)(=O)NCc2ccco2)cc1,-4.22
3,CC1CCCCN1CC(O)COCCC12CC3CC(CC(C3)C1)C2.Cl (centres unmarked),-63.6
4,CCCCN(CC)C(=O)c1cc2cc3ccc(OC)cc3nc2o1,-38.8
5,CCC(=O)N(C)C(c1ccccc1Cl)c1nnnn1-c1c(C)cccc1C (centres unmarked),16.2
6,COc1ccc(NCC(=O)N/N=C/C2CCCCC2)cc1,1.05
7,Cc1ccccc1C(=O)NC(Oc1ccccc1)C(Cl)(Cl)Cl (centres unmarked),-25.4
8,Cc1cc(SCC(=O)c2ccccc2)n2nc(C)nc2n1,1.43
9,C=CCC1C=C(Cc2ccccc2)CC(CC=C)N1.Cl (centres unmarked),-22.7
10,CCn1c(C)nc2cc(C(=O)N=Nc3c(O)[nH]c4ccccc34)ccc21,1.1
11,Cc1ccc(S(=O)(=O)N2CCOCC2)cc1NC(=O)CSc1n[nH]c(N)n1,3.15
12,C=CCn1c(Sc2ncc([N+](=O)[O-])s2)n[nH]c1=O,-8.78
13,Cc1ccccc1NC(=S)N(CCCN1CCOCC1)Cc1cccs1,-39.9
14,CCN(CC)C(=O)C1CCCN(C/C(C)=C/c2ccccc2)C1 (centres unmarked),-30.7
15,COc1ccc(C2OC(=O)Cc3cc(OC)c(OC)cc32)cc1 (centres unmarked),25.8
16,Clc1ccc(-c2ccc(/C=N/Nc3cc(N4CCOCC4)nc(N4CCOCC4)n3)o2)cc1,-2.8
17,C=C(C)c1cccc(C(C)(C)NC(=O)N2CCCC(C(N)=O)C2)c1 (centres unmarked),-5.02
18,O=C(CCS(=O)(=O)c1ccc(Cl)cc1)N1CCCc2ccccc21,-0.368
19,O=c1cc[nH]c2c(Cl)cccc12,10
20,CCc1cccc(NC(=O)CN(C)S(=O)(=O)c2cccs2)c1,-5.93
21,O=C(CSC(=S)N1CCCC1)N(Cc1nnc(-c2ccccc2Cl)o1)C1CC1,-6.76
22,CCOc1ccccc1NC(=O)CC(O)(C(F)(F)F)C(F)(F)F,-4.56
23,Cc1nn(C)c(C)c1S(=O)(=O)N(CC(=O)NCc1ccco1)c1ccc(C(C)C)cc1,16.6

row,SMILES,"hERG current change (%, negative = inhibition) at 10uM [%]"
1,CCN(CC)CCCOc1ccc(Cl)c(Cl)c1,-60.5
2,Cc1cc(NS(=O)(=O)c2c(C)[nH]c(=O)[nH]c2=O)ccc1Br,14.9
3,CCOC(=O)c1nnn(CC(=O)NC(=O)Nc2ccc(F)cc2)c1C(=O)OCC,-20.8
4,O=C(c1ccc2nc(N3CCOCC3)sc2c1)N1CCN(C(=O)c2ccco2)CC1,-47.4
5,Cc1c(C(=O)N2CCCCC2C)sc2nc3n(c(=O)c12)CCC3 (centres unmarked),9.9
6,COCCCn1c(=O)c2ccccc2n2c(=S)[nH]nc12,15.5
7,COc1ccccc1C(=O)N/C(=C\c1ccccc1)C(=O)NC(C)C(=O)O (centres unmarked),16.5
8,CC(C)c1ccc(N2C(=O)CC(NNC(=O)c3ccccc3Cl)C2=O)cc1 (centres unmarked),22.6
9,O=C(O)c1cccc(-c2ccc(/C=N/n3cnc4sc5c(c4c3=O)CCCC5)o2)c1,8.27
10,Nc1nc(Cl)cc(NCCc2ccccc2)n1,13
11,Cc1ccc(Cn2cc(S(=O)(=O)c3ccc(Cl)cc3)c(=O)c3cc(F)ccc32)cc1,-14.6
12,C=CCOc1ccc(/C=N/n2nnnc2N)cc1OC,8.83
13,CCOc1ccc2nc(SCC(=O)NC(=O)NCc3ccco3)[nH]c2c1,-17.1
14,CCOC(=O)c1ccccc1NC(=O)c1cn(-c2ccc(OC)cc2)c(=O)c2ccccc12,-4.21
15,COc1ccc(C/C(C)=N/Nc2nc(C)cc(=O)[nH]2)cc1,20.5
16,O=C(N/N=C\c1ccc(Oc2ccccc2)cc1)c1csnn1,-11.7
17,CCOC(=O)c1[nH]c(C)c(C(=O)N(C)C)c1C,4.87
18,N#CC1=C(N)Oc2cc3ccccc3cc2C1c1cccnc1 (centres unmarked),18
19,O=C(NC(=S)Nc1ccccc1N1CCCCC1)c1ccccc1,22.5
20,CC(=O)c1c(C)[nH]c(C(=O)OCC(=O)N2CCc3ccccc32)c1C,3.9
